This is an account of results in PubChem BioAssay (NCATS).

Inconclusive results are not listed. Calls come from the whole dose curve; as a rule, active = well fitted curve in the direction sought with a large enough effect; inconclusive = small, poorly fitted or top-dose-only effect, or another doubt; inactive = no such curve, though single readings can be large; an effect the other way counts as inactive or inconclusive. A structure can be active in one record and inactive in another. Certain results were filed several times, with different values. They are shown here; other results are not. The source may hold further records. Results that share an entry repeat one measurement (runs, samples, wells, individuals or studies). A tag in brackets gives the origin of a value. Letters count within one entry.

Assay [1] can be described thus: qHTS of pediatric cancer cell lines to identify multiple opportunities for drug repurposing: Primary screen for SK-N-MC cells (AID 1347093). In general terms: qHTS replaces the single test concentration by a dilution series.
The nature of assay [2]: qHTS of pediatric cancer cell lines to identify multiple opportunities for drug repurposing: Primary screen for SJ-GBM2 cells (AID 1347091). An outline of the steps: (§1)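 Cell viability, CellTiter-Glo luminescence; 500-1,000 cells/well, 8- or 11-point titration, 48 h compound exposure at 37 degrees C, 5% CO2. Controls: DMSO neutral, bortezomib 2.3 µM final as positive.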
A short description of assay [3]: qHTS of pediatric cancer cell lines to identify multiple opportunities for drug repurposing: Primary screen for LAN-5 cells (AID 1347100). Summed up: (§2)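 Cells (500-1,000/well) rested 5 h, then received compounds for 48 h; metabolically active cells were measured by CellTiter-Glo luminescence. Final concentrations spanned up to 46 µM (MIPE, 11-point) or 0.59 nM-46 µM (NPC, 8-point) in primary screens, 11-point in follow-ups.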

Assay [4] is described as follows: qHTS of pediatric cancer cell lines to identify multiple opportunities for drug repurposing: Primary screen for OHS-50 cells (AID 1347103). Note: nearly all actives have a fitted effect of over 40% in size. An outline of the steps:
as §2

Assay [5] in a line: qHTS of pediatric cancer cell lines to identify multiple opportunities for drug repurposing: Primary screen for DAOY cells (AID 1347090). Note: nearly all actives have a fitted effect of over 55% in size. An outline of the steps:
as §1

A short description of assay [6]: qHTS of pediatric cancer cell lines to identify multiple opportunities for drug repurposing: Primary screen for BT-12 cells (AID 1347101). Note: nearly all actives have a fitted effect of over 25% in size. Summed up:
as §2

Assay [7] can be described thus: qHTS of pediatric cancer cell lines to identify multiple opportunities for drug repurposing: Primary screen for MG 63 (6-TG R) cells (AID 1347105). Note: nearly all actives have a fitted effect of over 50% in size. An outline of the steps: (§3)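 Luminescence from CellTiter-Glo served as readout of metabolically active cells after 48 h compound exposure. Titrations: MIPE 11-point, from 0.78 nM; NPC 8-point, from 0.59 nM (final). Concentration-response curves came straight from the primary screen.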

The nature of assay [8]: qHTS of pediatric cancer cell lines to identify multiple opportunities for drug repurposing: Primary screen for TC32 cells (AID 1347089). Note: nearly all actives have a fitted effect of over 60% in size. An outline of the steps: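 A viability screen of TC32 cells was run over 48 h, with primary MIPE doses spanning 0.78 nM–46 µM and NPC doses 0.59 nM–46 µM. ATP luminescence (CellTiter-Glo) served as the read-out.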
Assay [9] can be described thus: qHTS of pediatric cancer cell lines to identify multiple opportunities for drug repurposing: Primary screen for BT-37 cells (AID 1347094). An outline of the steps: as §3
Assay [10] is described as follows: qHTS of pediatric cancer cell lines to identify multiple opportunities for drug repurposing: Primary screen for NB-EBc1 cells (AID 1347095).
Assay [11] in a line: qHTS of pediatric cancer cell lines to identify multiple opportunities for drug repurposing: Primary screen for U-2 OS cells (AID 1347096). Note: nearly all actives have a fitted effect of over 50% in size. Summed up: as §2
Assay [12] in a line: qHTS of pediatric cancer cell lines to identify multiple opportunities for drug repurposing: Primary screen for Saos-2 cells (AID 1347097). Note: nearly all actives have a fitted effect of over 40% in size. Summed up:
as §3

Assay [13] can be described thus: qHTS of pediatric cancer cell lines to identify multiple opportunities for drug repurposing: Primary screen for SK-N-SH cells (AID 1347098). Note: nearly all actives have a fitted effect of over 65% in size. Summed up:
as §2

Assay [14] is described as follows: qHTS of pediatric cancer cell lines to identify multiple opportunities for drug repurposing: Primary screen for NB1643 cells (AID 1347099). Note: nearly all actives have a fitted effect of over 50% in size.
Assay [15] is described as follows: qHTS of pediatric cancer cell lines to identify multiple opportunities for drug repurposing: Primary screen for Rh18 cells (AID 1347102). Note: nearly all actives have a fitted effect of over 65% in size. An outline of the steps:
as §2

A short description of assay [16]: qHTS of pediatric cancer cell lines to identify multiple opportunities for drug repurposing: Primary screen for RD cells (AID 1347104). Note: nearly all actives have a fitted effect of over 55% in size. An outline of the steps:
as §3

The nature of assay [17]: qHTS of pediatric cancer cell lines to identify multiple opportunities for drug repurposing: Primary screen for Rh41 cells (AID 1347108). Note: nearly all actives have a fitted effect of over 70% in size. An outline of the steps:
as §3
Potency is the fitted concentration of half-maximal effect.

For the compound `CC(C)(Sc1cc(C(C)(C)C)c(O)c(C(C)(C)C)c1)Sc1cc(C(C)(C)C)c(O)c(C(C)(C)C)c1`, the Potency entry in [1] is “inactive [sample A] and active: 2.96 µM [sample B]”.
In the case of `Clc1ccccc1CN1CCc2sccc2C1`, the Potency entry in [2] was “active: 3.72 µM [sample A] and inactive [sample B]”; in assay [1], “active: 33.2 µM [sample A] and inactive [sample B]”; in assay [3], “active: 1.48 µM [sample A] and inactive [sample B]”; in assay [4] it was “active: 1.93 µM [sample A] and inactive [sample B]”.
Turning to `Cc1c(-c2ccc(O)cc2)n(Cc2ccc(OCCN3CCCCCC3)cc2)c2ccc(O)cc12`, the Potency entry in [5] was “inactive [sample A] and active: 26.6 µM [sample B]”; in assay [3], “inactive [sample A] and active: 21.1 µM [sample B]”; in [6] it was “inactive [sample A] and active: 30.9 µM [sample B]”; in [4], “inactive [sample A] and active: 30.9 µM [sample B]”; in [7], “inactive [sample A] and active: 26.6 µM [sample B]”.
Consider `COc1ccc(C(=O)CC(=O)c2ccc(C(C)(C)C)cc2)cc1`, for which the Potency result in [8] was “inactive [sample A] and active: 14.7 µM [sample B]”; in [5], “inactive [sample A] and active: 3.72 µM [sample B]”; in assay [2], “inactive [sample A] and active: 6.62 µM [sample B]”; in [1], “inactive [sample A] and active: 935 nM [sample B]”; in assay [9] it was “inactive [sample A] and active: 1.37 µM [sample B]”; in [10], “inactive [sample A] and active: 833 nM [sample B]”. Further, the Potency result is “inactive [sample A] and active: 9.35 µM [sample B]” in assay [11]; “inactive [sample A] and active: 18.7 µM [sample B]” in [12]; “inactive [sample A] and active: 2.41 µM [sample B]” in assay [13]; “inactive [sample A] and active: 1.66 µM [sample B]” in assay [14]; “inactive [sample A] and active: 264 nM [sample B]” in assay [3]; “inactive [sample A] and active: 6.11 µM [sample B]” in [6]. Moreover, the Potency entry in assay [15] was “inactive [sample A] and active: 8.33 µM [sample B]”; in assay [16], “inactive [sample A] and active: 3.72 µM [sample B]”; in assay [17], “inactive [sample A] and active: 2.35 µM [sample B]”.
On to `Cc1cc(NS(=O)(=O)c2ccc(N)cc2)no1`, for which the Potency result in assay [1] was “inactive [sample A] and active: 5.26 µM [sample B]”; in assay [13], “inactive [sample A] and active: 5.41 µM [sample B]”; in assay [14], “inactive [sample A] and active: 7.43 µM [sample B]”.
For the compound `COc1cnc(NS(=O)(=O)c2ccc(N)cc2)nc1`, the Potency result was “inactive [sample A] and active: 5.9 µM [sample B]” in assay [1]; “inactive [sample A] and active: 27.1 µM [sample B]” in assay [13]; “inactive [sample A] and active: 10.5 µM [sample B]” in assay [14]; “inactive [sample A] and active: 14.8 µM [sample B]” in assay [3]; “inactive [sample A] and active: 26.4 µM [sample B]” in [16].
For `CN(CCOc1ccc(CC2SC(=O)NC2=O)cc1)c1ccccn1` (stereo unspecified), in assay [1], the Potency entry was “inactive [sample A] and active: 23.5 µM [sample B]”.
As to `Cc1ccnc2c1NC(=O)c1cccnc1N2C1CC1`, the Potency result was “inactive [sample A] and active: 6.62 µM [sample B]” in assay [1]; “inactive [sample A] and active: 9.61 µM [sample B]” in assay [13].
Take `CC(C)Cn1cnc2c(N)nc3ccccc3c21`: the Potency entry is “inactive [sample A] and active: 18.7 µM [sample B]” in [2]; “inactive [sample A] and active: 13.7 µM [sample B]” in [9]; “inactive [sample A] and active: 7.43 µM [sample B]” in [10]; “inactive [sample A] and active: 18.7 µM [sample B]” in [12]; “inactive [sample A] and active: 19.2 µM [sample B]” in assay [13]; “inactive [sample A] and active: 2.96 µM [sample B]” in [14]. Also, the Potency result is “inactive [sample A] and active: 3.72 µM [sample B]” in assay [3]; “inactive [sample A] and active: 21.7 µM [sample B]” in assay [6]; “inactive [sample A] and active: 19.3 µM [sample B]” in assay [4]; “inactive [sample A] and active: 16.6 µM [sample B]” in [16]; “inactive [sample A] and active: 14.8 µM [sample B]” in [17].
On to `O=C(NCC1CN(c2ccc(N3CCOCC3=O)cc2)C(=O)O1)c1ccc(Cl)s1` (stereo unspecified), for which, in assay [1], the Potency entry was “inactive [sample A] and active: 3.72 µM [sample B]”.
For the compound `Oc1c(Cl)cc(Cl)c2cccnc12`, the Potency result in assay [8] is “active: 16.7 µM [sample A] and inactive [sample B]”.
In the case of `Cc1nnc(NS(=O)(=O)c2ccc(N)cc2)s1`, the Potency entry in assay [5] is “inactive [sample A] and active: 3.72 µM [sample B]”; in assay [2], “inactive [sample A] and active: 5.9 µM [sample B]”; in [9] it was “inactive [sample A] and active: 6.11 µM [sample B]”; in [10], “inactive [sample A] and active: 13.2 µM [sample B]”; in assay [13] it was “inactive [sample A] and active: 21.5 µM [sample B]”; in assay [14], “inactive [sample A] and active: 935 nM [sample B]”. Moreover, the Potency entry in assay [3] is “inactive [sample A] and active: 2.64 µM [sample B]”; in assay [15], “inactive [sample A] and active: 3.32 µM [sample B]”; in assay [4], “inactive [sample A] and active: 3.85 µM [sample B]”; in assay [16], “inactive [sample A] and active: 2.35 µM [sample B]”; in assay [7], “inactive [sample A] and active: 4.69 µM [sample B]”; in [17] it was “inactive [sample A] and active: 2.35 µM [sample B]”.
As for `COc1cc2c(Nc3ccc(Br)cc3F)ncnc2cc1OCC1CCN(C)CC1`, the Potency entry is “active: 18.7 µM [sample A] and inactive [sample B]” in assay [5]; “active: 18.7 µM [sample A] and inactive [sample B]” in assay [1]; “active: 9.68 µM [sample A] and inactive [sample B]” in assay [9]; “active: 24.1 µM [sample A] and inactive [sample B]” in assay [13]; “active: 18.7 µM [sample A] and inactive [sample B]” in assay [14]; “active: 18.7 µM [sample A] and inactive [sample B]” in [3]. In addition, the Potency entry was “active: 18.7 µM [sample A] and inactive [sample B]” in [15]; “active: 21.7 µM [sample A] and inactive [sample B]” in assay [4]; “active: 16.6 µM [sample A] and inactive [sample B]” in [16]; “active: 18.7 µM [sample A] and inactive [sample B]” in assay [7]; “active: 20.9 µM [sample A] and inactive [sample B]” in assay [17].
As to `Cc1cccc(N(C)C(=S)Oc2ccc3ccccc3c2)c1`, the Potency entry in assay [1] is “inactive [sample A] and active: 8.33 µM [sample B]”; in assay [14] it was “inactive [sample A] and active: 9.35 µM [sample B]”.
Turning to `O=C(O)c1cccnc1`, the Potency entry in assay [1] is “inactive [sample A] and active: 20.9 µM [sample B]”.
For `CCOC(=O)[C@H](CCc1ccccc1)N[C@H]1CS[C@H](c2cccs2)CN(CC(=O)O)C1=O`, the Potency entry in assay [5] was “active: 2.96 µM [sample A] and inactive [sample B]”; in assay [2], “active: 1.66 µM [sample A] and inactive [sample B]”; in [1] it was “active: 590 nM [sample A] and inactive [sample B]”; in assay [9], “active: 2.43 µM [sample A] and inactive [sample B]”; in [10], “active: 1.48 µM [sample A] and inactive [sample B]”; in assay [11], “active: 11.8 µM [sample A] and inactive [sample B]”. For the same compound, the Potency result in assay [12] is “active: 5.9 µM [sample A] and inactive [sample B]”; in assay [13], “active: 6.07 µM [sample A] and inactive [sample B]”; in [14] it was “active: 662 nM [sample A] and inactive [sample B]”; in assay [3] it was “active: 1.18 µM [sample A] and inactive [sample B]”; in assay [6], “active: 4.85 µM [sample A] and inactive [sample B]”; in [15], “active: 1.66 µM [sample A] and inactive [sample B]”. Also, the Potency entry in assay [4] was “active: 1.53 µM [sample A] and inactive [sample B]”; in [16] it was “active: 1.87 µM [sample A] and inactive [sample B]”; in [7] it was “active: 4.69 µM [sample A] and inactive [sample B]”; in assay [17], “active: 1.87 µM [sample A] and inactive [sample B]”.
